From the RNAGym collection of RNA variant scans (doi:10.7554/elife.90254) come the findings set out here.

Read counts are not given, so values of variants with three or more changes are uncertain.

Sequences and labels used below:
B1: LINE1-mini (parent)
chain: GGCAGAGCUCAACACAGCGUGGCAAAGUGGCUGUGGCUAGACUGCC

The variants in the data set derive from B1. Nature of the data set: self-cleavage, relative activity (ratio to wild type); higher = more cleavage; in vitro, sequencing; the parent is a self-cleaving ribozyme.
On to C3G C13A A24G G36A A41U C45A, for which the self-cleavage was found to be 0.08. Turning to C3G U9A A39U, the self-cleavage is 0.02. With C3G A4U A41G, the self-cleavage worked out at 0.02. With C3G C10G C31A G44U, the self-cleavage came to 0.01. C3G G5C A12U: the self-cleavage turned out to be 0.13. With C3U A4U C8U G29U G30A G35A the figure was 0.08; with C3G A14U A24G G35A C42A, 0.18.

As to C3A G17C G19U G35U A39G, the self-cleavage came to 0.03. As for C3G G30C G36A, the self-cleavage came out at 0.1. For the variant C3G G7C U38G A39U, the self-cleavage was 0.07. Take C3A G7U G27U G35A: the self-cleavage turned out to be 0.21.

As for C3G A6U G17C G40A, the self-cleavage was found to be 0.01. For C3G C15U G21A U43A, the self-cleavage turned out to be 0.16. With C3G C18A G22A G29C U34A, the self-cleavage was found to be 0.05. With C3A G33U A41C, the self-cleavage stood at 0.07. As for C3G U20G G30C, the self-cleavage stood at 0.23. On to C3G U9G A24G, for which the self-cleavage was 0.06. On to C3G C18A U28C, for which the self-cleavage stood at 0.11. For C3G G5U C8A, the self-cleavage was 1.5. With C3A G27A U43A the figure was 0.62; with C3A U28A C31G G35C, 0.1. With C3G U9C U38C the figure was 0.06; with C3G A12C G35C U38G, 0.02.

As for C3G C8G U20G U34C, the self-cleavage is 0.01.

In the case of C3G C8A C13U C18A G22A U28A G44C, the self-cleavage was 0.19. As to C3G A12G G36U C46U, the self-cleavage turned out to be 0.04. With C3A U28G U32A the figure was 0.07; with C3G A6G A24G, 0.02; with C3A G27U C31A, 0.16.

With C3A G17U C18G, the self-cleavage is 0.19. As for C3G G19A G36U G40A, the self-cleavage was 0.24.

Consider C3G C23U G29U C46A, for which the self-cleavage was 0.37.

Consider C3A G27A A39C, for which the self-cleavage was 0.03.

With C3G A4U C18U G29A G40A A41G, the self-cleavage stood at 0.2. For C3G A6U G40C, the self-cleavage is 0.05.

Regarding C3U A4U A16C G33A G35A, the self-cleavage turned out to be 0.03. For the variant C3U A4U C10U A39G C45A, the self-cleavage was determined as 0.07. On to C3G G35U G40A, for which the self-cleavage was determined as 0.04. As to C3G G7A G19A G29U, the self-cleavage turned out to be 1.35. With C3G C8U C45A the figure was 0.28; with C3G G7U A14C G40A, 0.02; with C3G G17A G19U C45U, 0.07. In the case of C3G G33U G35U C45G, the self-cleavage is 0.08. As to C3A U9A G40U G44U, the self-cleavage turned out to be 0.09. For the variant C3G U20A G35U G36U C37G, the self-cleavage was 1.25. On to C3A G17A A25G G44C, for which the self-cleavage was 0.05. Regarding C3G A16U G40U, the self-cleavage was determined as 0.1. The result for C3G G33U C46U reads 0.1; that for C3G A6U G36C U38C, 0.14. Consider C3G G5C C46A, for which the self-cleavage is 0.25. C3G A14U C45G: the self-cleavage turned out to be 0.3. As to C3G G36U G40C A41U U43G, the self-cleavage was 0.1. With C3A U9C G36C A41U C45G, the self-cleavage is 0.02. In the case of C3G C13U G17C G19U, the self-cleavage came to 0.11. With C3G A6C C23G the figure was 0.08; with C3G C8G G29A, 0.02. C3A U28A U38C: the self-cleavage turned out to be 0.07. For C3G C13U C18U G21A G29A G36U, the self-cleavage was determined as 0.28. For C3G A26U G29A C31A G35A, the self-cleavage was found to be 0.08.

For the variant C3G G22A C31U, the self-cleavage was determined as 0.05. On to C3A G27A G30A, for which the self-cleavage turned out to be 0.98. Take C3G A4G G21A G22C U28C G30A: the self-cleavage turned out to be 0.11. As to C3G G40U C46A, the self-cleavage was 0.11. In the case of C3A U20C G21A G33C U38G C46A, the self-cleavage is 0.01. On to C3G G17C A25U, for which the self-cleavage came to 0.06. As for C3A G29A G35C C46A, the self-cleavage amounted to 0.13.

For the variant C3G C13U C31G U34G, the self-cleavage stood at 0.01. Take C3G G7U U38C: the self-cleavage amounted to 0.08. Turning to C3G C10G A24G C31A, the self-cleavage came out at 0.01. Regarding C3G A16C G30U G33U, the self-cleavage turned out to be 0.02. For the variant C3G C8A C18G U32C C42A, the self-cleavage came out at 0.13.

C3G A6U G22U G36A A41C C46A: the self-cleavage worked out at 1.24.

For C3A G27U U28A, the self-cleavage came out at 0.24.

C3G A12G U20G: the self-cleavage was 0.07. C3A G21U G29C A39G: the self-cleavage turned out to be 0.18. With C3G C23A G44A the figure was 0.47; with C3G A4U G5A C45A, 0.54. With C3A G30C G44C the figure was 0.18. For C3G A26U G44C C45A, the self-cleavage turned out to be 0.53.

With C3G G22A A41G, the self-cleavage amounted to 0.01. With C3G A24G A26G G27A C46A the figure was 0.24. With C3U A4G G27U G44C, the self-cleavage is 0.08. In the case of C3G G7U G27U, the self-cleavage was found to be 0.17. Take C3G G17U U28C: the self-cleavage amounted to 0.07. With C3G A4C G33U, the self-cleavage amounted to 0.04.

As for C3G A4U A11G G40U C46A, the self-cleavage was found to be 0.01.

For C3G A26U C45U, the self-cleavage stood at 0.04.

C3G C18G G27A C45A: the self-cleavage was found to be 0.13. Take C3G A12C C15U C18A G44C: the self-cleavage worked out at 0.01. Turning to C3A G22C G29A, the self-cleavage stood at 0.56. The result for C3G C10G C23G reads 0.03; that for C3G C23G A25U U34A G36U C45G, 0.09. For C3G G7A A12G G21C C23G, the self-cleavage worked out at 0.03.

For C3A U9C A12G, the self-cleavage was found to be 0.06. C3G G7U A12U C15A G19A: the self-cleavage amounted to 0.05. The result for C3G C18G G19A C23A reads 0.04; that for C3G C13A C45A, 0.09. Turning to C3G C13G G19C G27U G29U U38G G44U, the self-cleavage worked out at 0.01. For C3U A4U C23A, the self-cleavage came out at 0.06. Regarding C3G A26U G27U U38C C45A, the self-cleavage is 0.04.

As for C3A G21U C31U U32A U38G, the self-cleavage was 0.06.

For the variant C3A U9A C46A, the self-cleavage was 0.49.

In the case of C3A G7U G30C, the self-cleavage worked out at 0.35. Consider C3G A16U C18U A25U U34G C37G, for which the self-cleavage turned out to be 0.07. For C3G G5C U28A U38G C46U, the self-cleavage was 0.05. In the case of C3A G21C G29A, the self-cleavage amounted to 0.54.

Consider C3A G17C G33U G36U, for which the self-cleavage was found to be 0.1. Consider C3G G22U G30U A39C, for which the self-cleavage is 0.05. The result for C3U A4G A41U reads 0.17; that for C3A G27U U34A, 0.02; that for C3A G17C G27C G40A A41U, 0.13.

For the variant C3G A6G C18U A41U, the self-cleavage is 0.07.

As for C3G U43C G44A, the self-cleavage is 0.07. On to C3A G36C G40U U43A, for which the self-cleavage was 0.1.

In the case of C3G G5C G19C U32G, the self-cleavage came to 0.06. On to C3G A4U G7C G29C G40A, for which the self-cleavage amounted to 0.02. With C3G G30C U38A, the self-cleavage amounted to 0.36. Consider C3G C13A G29U, for which the self-cleavage worked out at 0.13. For C3G C13U C18U G35C, the self-cleavage amounted to 0.03.

As to C3G A6C A16U, the self-cleavage amounted to 0.07.

As for C3A U20G G40A A41C G44A, the self-cleavage turned out to be 0.09. As for C3A U9A U20A C37A C42U, the self-cleavage stood at 0.3. With C3G G21A C31G, the self-cleavage came out at 0.04. Regarding C3A G29U U34G G44U, the self-cleavage is 0.16.

C3G C10U G36A: the self-cleavage worked out at 0.07. Consider C3G U28G U38C, for which the self-cleavage worked out at 0.2. As for C3G G17A C23G U32G, the self-cleavage turned out to be 0.03.

Take C3G G17U C42U: the self-cleavage was 0.29. Take C3G U20A G21C G29A U34G: the self-cleavage was found to be 0.03.

As to C3A G19U G30A, the self-cleavage worked out at 0.1. As for C3A U20G G33U C45G, the self-cleavage is 0.09. With C3G C23U U28A G40U A41U, the self-cleavage turned out to be 0.06. Consider C3A U9G U43A, for which the self-cleavage came out at 0.23.

As to C3G C15U U20C C23G, the self-cleavage was found to be 0.37. C3G G40U C45U C46G: the self-cleavage is 0.13.

In the case of C3A G27U U32C C45G, the self-cleavage came out at 0.1. The result for C3G A16G U43C C46G reads 0.03; that for C3G C13A U28C, 0.67.

Regarding C3G U20G G29U, the self-cleavage is 0.16.

With C3G G7A A11C A12G A25C U38G, the self-cleavage turned out to be 0.

In the case of C3G G5U G7U U20G G29C G30U U43G, the self-cleavage came to 0.01. With C3G G19C G27A C46G, the self-cleavage amounted to 0.05. On to C3G C10G G30C G33C, for which the self-cleavage was 0.01. Regarding C3G A26C G30C, the self-cleavage was determined as 0.04.

As to C3G G5U A26G, the self-cleavage worked out at 0.09. In the case of C3G A26C C37G C42A G44C, the self-cleavage worked out at 0.02. Consider C3G G22A G30A C31G, for which the self-cleavage was 0.08. As for C3G G30U C37G, the self-cleavage was found to be 0.12. As to C3U A4C G5U U38G, the self-cleavage came out at 0.03. Consider C3G A4U A24U G40A, for which the self-cleavage was 0.04. As to C3G A11U U20G G22U U34A, the self-cleavage amounted to 0.05. For the variant C3G A14C G21C, the self-cleavage was determined as 0.03. Turning to C3G G7A A12U A14U A25G, the self-cleavage came to 0.1.

C3G G7C C8A A16U: the self-cleavage worked out at 0.48. With C3A G21U C37G G40U, the self-cleavage was 0.21. With C3G G5U C10U A41C the figure was 0.05.

For C3G A12U G19U G27U, the self-cleavage came out at 0.02. For C3A G35U A41U, the self-cleavage is 0.16. C3G U32C C37U: the self-cleavage is 0.11. As for C3G G5A C31G G33A, the self-cleavage turned out to be 0.12. Turning to C3A G21A A24U G30A G33A U34A U43A, the self-cleavage worked out at 0.33.

As for C3G A4C U28C U34A, the self-cleavage is 0.07. Take C3G G27C C37A: the self-cleavage is 0.19. With C3G A41C G44A the figure was 0.08; with C3A U28G G30A C42G, 0.09; with C3G A4U G5U C23U A41U U43G, 0.05. As to C3G A6U C15U G36A U38A G40U, the self-cleavage was determined as 0.39.
